The record followed here is the supplement of paper PMC11417369.

± gives the standard deviation of the averaged measurements. This is one part of the list.

The assay concerns PfAP2-I AP2 domain 3 (GST-tagged). Put plainly: gcPBM binding intensity (ln(normalized median fluorescence intensity)); higher = stronger DNA binding. The method in brief: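 Binding intensity is the highest Masliner-normalised natural-log median intensity over replicate spots in either probe orientation. To obtain it, GST-tagged P. falciparum DNA-binding domains made in E. coli were incubated for 1 h on an Agilent 4 × 180k array of primer-extended double-stranded 36-bp intergenic genomic probes plus negative controls. Detection used Alexa488 anti-GST antibody with scanning at 488 nm.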
For the sequence “TACACTTTTTATGAAGTGCATGTATAGCTCTTAAAA [GTGCAC_site9595]”, the “gcPBM binding intensity (ln)” value was found to be 8.38 ± 0.28.

Regarding “ATTTACATAATAAAATGTACATTTATAAATATTATA [XGTACX_site1901]”, the “gcPBM binding intensity (ln)” value is 7.75 ± 0.35.

Take CATTATTCATTTTGGATGCACTGACAGAAAAATGGT: the “gcPBM binding intensity (ln)” value was found to be 9.63 ± 0.099.

Regarding “ATGCTCAGGAAAACATGTACAAAATTATTTGTTATA [XGTACX_site4306]”, the “gcPBM binding intensity (ln)” value worked out at 7.6 ± 0.42.

For “TTATAATAATATAATACATGCATATATATTTAAATA [TGCATGCA_site903]”, the “gcPBM binding intensity (ln)” value is 7.84 ± 0.61.

Take ATAAACATATAAAAAGTGCATATTCATATATCTACT: the “gcPBM binding intensity (ln)” value came to 9.365 ± 0.092.

Turning to “AATACACTAAACAAAAGTACAAAAATATTCTACAAA [XGTACX_site5162]”, the “gcPBM binding intensity (ln)” value is 7.67 ± 0.53.

As for “ATGGCCTCATTTGGGACACACAACATAAAATATATA [CACACA_site753]”, the “gcPBM binding intensity (ln)” value came out at 7.66 ± 0.69.

“AAATATATTTTATGTACACACAAAATTAAGGGATAT [CACACA_site4881]”: the “gcPBM binding intensity (ln)” value stood at 8.09 ± 0.5.

With “TGTTAATTATAAATTTGTACTTATTTTTACAAAATA [XGTACX_site6598]”, the “gcPBM binding intensity (ln)” value was found to be 7.82 ± 0.26.

“CATTTTTTATTTCCTTGTACGAATAAAATATATTTA [XGTACX_site6844]”: the “gcPBM binding intensity (ln)” value is 7.99 ± 0.36.

Take “AATTTAATATAATGCACACATAAAACAAAAACAAAA [CACACA_site529]”: the “gcPBM binding intensity (ln)” value came out at 10.8 ± 0.72.

As for “TATTATCGTTCTCATACACACAAAATATACATACAC [CACACA_site2643]”, the “gcPBM binding intensity (ln)” value is 8.12 ± 0.3.

As to “TACGTAAATGTGTGTGTGCACGTTATATATTAATAT [GTGCAC_site9976]”, the “gcPBM binding intensity (ln)” value came to 10.4 ± 0.35.

Consider “ATATAATAATAAAGACGTACAAATGTATATATATAC [XGTACX_site3123]”, for which the “gcPBM binding intensity (ln)” value amounted to 7.97 ± 0.45.

Turning to CCTTTTTATCTTTTTGTGCACAGACCTTTTTTAAAT, the “gcPBM binding intensity (ln)” value was determined as 10.835 ± 0.007.

In the case of “ATGTAAGTTGTGCATTCACACACATATATATATATA [CACACA_site9086]”, the “gcPBM binding intensity (ln)” value stood at 9.83 ± 0.16.

For “ATTTTTTTTTTTTTTTTTTTTTTATTCTTGTAATCT [CACACA_negctrl_site1039]”, the “gcPBM binding intensity (ln)” value is 7.58 ± 0.61.

On to “AAAAAAAAAAAAAACATACACACAATAAAATAGGGG [CACACA_site2398]”, for which the “gcPBM binding intensity (ln)” value is 8.54 ± 0.54.

For the sequence “TATTTAAATTTTAAGTGTACATATTTATTTATATCT [XGTACX_site6545]”, the “gcPBM binding intensity (ln)” value came out at 7.81 ± 0.18.

For “AAAAAAAAAAAAATCACACATAATATAGAATATGTA [CACACA_site4993]”, the “gcPBM binding intensity (ln)” value was found to be 7.43 ± 0.3.

As to “ATATATATATATATAACACACGCAAAAAAATTAAAT [CACACA_site8395]”, the “gcPBM binding intensity (ln)” value came out at 9.495 ± 0.064.

For “AACTTAAAAAATAAATGTACATAAATATAAACATAT [XGTACX_site2987]”, the “gcPBM binding intensity (ln)” value is 7.63 ± 0.49.

As for “AAAATGAATAAAAATACACACATATCTGTTATTCTC [CACACA_site5474]”, the “gcPBM binding intensity (ln)” value is 7.46 ± 0.61.

On to “GAATATTAATTCATACGTACTTATATATAAGTATAT [XGTACX_site3707]”, for which the “gcPBM binding intensity (ln)” value was 7.7 ± 0.43.

Consider “TCACTATAATAATTTACACACATTTTAAGAAAATGT [CACACA_site3530]”, for which the “gcPBM binding intensity (ln)” value was 7.7 ± 0.31.

Regarding “TATAAAAATGGGCACACACACACATATATATATTTA [CACACA_site1527]”, the “gcPBM binding intensity (ln)” value came to 8.02 ± 0.35.

“GATGTTCATCACTACACACACAAAGAAATATATATA [CACACA_site2684]”: the “gcPBM binding intensity (ln)” value came out at 7.97 ± 0.73.

For the sequence “TTGTATTTCCTTAGGAGTACACATAAATAAGTAAAT [XGTACX_site6677]”, the “gcPBM binding intensity (ln)” value was determined as 8.22 ± 0.092.

For “AAAGAAAAAAAATATAAAAAATAAAAAATAAAACAA [CACACA_negctrl_site374]”, the “gcPBM binding intensity (ln)” value is 7.54 ± 0.59.

“TAATATATGTATATATGTACATATAAATGTTATAGA [XGTACX_site2721]”: the “gcPBM binding intensity (ln)” value turned out to be 7.8 ± 0.32.

Regarding “TTGGTATAAAATTATAGTACATAAGGTAAATATAAA [XGTACX_site4698]”, the “gcPBM binding intensity (ln)” value was found to be 7.89 ± 0.36.

Regarding “ATTTATATGTGGAGCAGTACGCACTCTCACAATTAA [XGTACX_site7252]”, the “gcPBM binding intensity (ln)” value amounted to 8.55 ± 0.33.

On to “TAAAAATTATATATCACACATATATGTCAGTATACA [CACACA_site4624]”, for which the “gcPBM binding intensity (ln)” value was 7.49 ± 0.49.

With “ATCATTTTTAAAGGAACACACAAAAAAAATTAAAAT [CACACA_site4878]”, the “gcPBM binding intensity (ln)” value is 7.86 ± 0.73.

Regarding “ACATATATTATTATATGTACATATATTAATTATATA [XGTACX_site3400]”, the “gcPBM binding intensity (ln)” value was found to be 7.81 ± 0.057.

Turning to “ACTCTCTTATATTAAACACACATATATATCTGTATA [CACACA_site5489]”, the “gcPBM binding intensity (ln)” value stood at 8.21 ± 0.65.

Regarding “CTTCTCTTTTTTATCATGCACTTTTTGTATAATAAT [GTGCAC_site9834]”, the “gcPBM binding intensity (ln)” value was 9.7 ± 0.18.

“GTAAAATATATAAAATGTACATATATTATATATATA [XGTACX_site489]”: the “gcPBM binding intensity (ln)” value came out at 8.54 ± 0.28.

In the case of “TTTCTTTATTAAAATATTTTACATATATAATATACG [TGCATGCA_negctrl_site564]”, the “gcPBM binding intensity (ln)” value was found to be 7.92 ± 0.55.

Take “CATTTAAAAGATAAAACACACATACTAATAAAAAAC [CACACA_site5417]”: the “gcPBM binding intensity (ln)” value is 8.06 ± 0.56.

For “AGAATACATATATGAACACACAGAGTTTTAAAAAAT [CACACA_site2735]”, the “gcPBM binding intensity (ln)” value was found to be 7.94 ± 0.31.

As for “TTTAAATAATCTAGGTGTACTTTCCTTTATAAATGT [XGTACX_site7859]”, the “gcPBM binding intensity (ln)” value came out at 7.72 ± 0.44.

Consider “TATTTCAATATATACCTTTGCTTTTTTAATATACTT [XGTACX_negctrl_site556]”, for which the “gcPBM binding intensity (ln)” value amounted to 7.75 ± 0.6.
